Values marked as one replicate rest on one cluster of the flow cell; about a third of the high ones do not repeat.
test system: ATP; assay: switch fluorescence ratio, 500 uM ATP over buffer (Cy3 cluster intensity, sum of 5 cycles each) (fold (ratio)); higher = stronger signal-on switching upon ATP binding; sequences stand for … in TCGTCGGCAGCGTCAGATGTGTATAAGAGACAGTTTTTTTTTTTTTTTTTTTTTTTTT…TC; settings: aptamer strand: ATP DNA aptamer (quencher-CACCTGGGGGAGTATTGCGGAGGAAGG + anchor), 100 nM annealed; ATP concentration: 500 uM; one replicate
Procedure, shortened: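 Per cluster, summed Cy3 intensity from the target cycles was divided by that from the buffer cycles to give the fluorescence ratio, then averaged per switch-domain sequence. Clusters outside 100-1000 RFU were excluded. The Cy3-labelled switching-strand clusters, on a modified Illumina MiSeq flow-cell, were annealed to 100 nM quencher-labelled ATP aptamer and imaged in selection buffer, then after 15 min with 500 uM ATP at 22 °C, for five cycles with NaOH stripping and re-annealing between them.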
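Note: ATP exposure 15 min at 22 °C before imaging.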

Sequence | switch fluorescence ratio
CCGTGAAGGT | 1.05
CCGTGCAGCA | 1.46
CCGTGCGATG | 2.69
CCGTGGGTTC | 1.11
CCGTGTTGGC | 1.04
CCGTTCCTTA | 1.02
CCGTTCTTAG | 1.04
CCGTTGGCCC | 1.16
CCGTTGGTGC | 1.49
CCGTTTACAC | 1.44
CCGTTTAGTA | 1.02
CCGTTTCCCG | 1
CCGTTTCCTG | 0.968
CCTAAATGAA | 1.02
CCTAACCTAG | 1.08
CCTAAGGGTA | 0.963
CCTACCTGCG | 2.18
CCTACTTAGA | 1.1
CCTAGGAAAG | 1.04
CCTAGTCCTC | 1.01
CCTAGTCTTG | 1.01
CCTAGTTAAA | 0.985
CCTAGTTGTC | 1.02
CCTATATATT | 1.05
CCTATCGTAC | 3.06
CCTATCTCTG | 1.07

Sequence | switch fluorescence ratio
CCTATGATCT | 1
CCTCAAACCG | 1.24
CCTCAGCAAG | 2.24
CCTCATTGAT | 1.07
CCTCCACGGA | 2.88
CCTCCCTCGT | 2.09
CCTCCTACGT | 2.94
CCTCGCCAAG | 3.59
CCTCGCTTCT | 3.69
CCTCGGTGAG | 0.952
CCTCGGTGGC | 1.14
CCTCGGTTGT | 1.21
CCTCTAGATG | 2.8
CCTCTAGGTC | 2.08
CCTCTGACAG | 3.68
CCTCTGAGGT | 1.12
CCTCTTCCCT | 1.13
CCTCTTGTAA | 5.76
CCTGAAAATA | 1.01
CCTGAAGATT | 1.05
CCTGAAGCGG | 1.44
CCTGACCTTC | 1.35
CCTGATACCG | 1.23
CCTGATAGGG | 0.972
CCTGATTGGG | 0.967
CCTGCAAAAA | 1.14

Sequence | switch fluorescence ratio
CCTGCCAGAG | 1.28
CCTGCCCTCC | 2.75
CCTGCCTAGA | 1.11
CCTGCGTACG | 1.3
CCTGGAGGAA | 1.11
CCTGGGATGG | 0.997
CCTGGGGTCC | 1.04
CCTGGTTAG | 1.02
CCTGGTTTAT | 1.01
CCTGTACTGG | 1.06
CCTGTGTTTG | 1.06
CCTGTTCCTT | 1.02
CCTGTTGATA | 1.01
CCTGTTTGA | 0.989
CCTGTTTTT | 0.996
CCTTAGACTT | 1.04
CCTTAGAGGC | 1.01
CCTTAGGGAG | 0.995
CCTTCGTATC | 4.12
CCTTGAAGGC | 1.19
CCTTGAGGTA | 1.02
CCTTGATGCC | 0.967
CCTTGATTGG | 1
CCTTGCCTAT | 1.09
CCTTGGATGG | 0.994

From the supplement of paper PMC10126150
